# The supplement of paper PMC9938546
# Counter-ions that a name gives are not always drawn. Some of the results follow. Repeats are few or missing, and single values can be far off.
# Test system: HCT116-GFP
# Experiment: HCT116-GFP viability (GFP intensity) relative to untreated control, monoculture; higher = less cancer cell killing
# Details: culture: HCT116-GFP monoculture; 10 µM; 72 h
# 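Note: viability estimated indirectly by image-based GFP quantification with live-cell imaging of the constitutively GFP-expressing human colorectal cancer line, no immune cells added.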
row,SMILES,HCT116-GFP viability
1,COc1cc2c(cc1OC)C(=O)C(CC1CCN(Cc3ccccc3)CC1)C2 (centres undefined) [Donepezil hydrochloride],102%
2,COc1cc(C(=O)NC2CCCNC2)cc(OC)c1OC (centres undefined) [Troxipide],88.4%
3,C[C@]12CC[C@@H]3c4ccc(O)cc4CC[C@H]3[C@@H]1CCC2=O [Estrone],98.9%
4,CC(=O)N(CC(C)C(=O)O)c1c(I)cc(I)c(N)c1I (centres undefined) [Iocetamic acid],107%
5,CN(C)[C@@H]1C(O)=C(C(N)=O)C(=O)[C@@]2(O)C(O)=C3C(=O)c4c(O)ccc(Cl)c4[C@@](C)(O)[C@H]3C[C@@H]12 [Chlortetracycline hydrochloride],92.5%
6,Cc1cccc(CN2CCN(C(c3ccccc3)c3ccc(Cl)cc3)CC2)c1 (centres undefined) [Meclozine dihydrochloride],96.4%
7,COc1cnc(NS(=O)(=O)c2ccc(N)cc2)nc1 [Sulfameter],111%
8,O=C(O)CCC(=O)Nc1ccc(S(=O)(=O)Nc2nccs2)cc1 [Succinylsulfathiazole],86.2%
9,COc1ccccc1O [Guaiacol],101%
10,CCCCC(C)(O)C/C=C/[C@H]1[C@H](O)CC(=O)[C@@H]1CCCCCCC(=O)OC (mixture of isomers) [Misoprostol],91.8%
11,CNCCC(Oc1ccccc1OC)c1ccccc1 (centres undefined) [Nisoxetine hydrochloride],101%
12,CCOC(=O)C1=C[C@]2(CC)CCCN3CCc4c(n1c1ccccc41)[C@@H]32 [Vinpocetine],95.9%
13,COc1ccc(-c2cc(=O)c3c(O)cc(O[C@@H]4O[C@H](CO[C@@H]5O[C@@H](C)[C@H](O)[C@@H](O)[C@H]5O)[C@@H](O)[C@H](O)[C@H]4O)cc3o2)cc1O [Diosmin],91.9%
14,CCCCCCCN(CC)CCCC(O)c1ccc(NS(C)(=O)=O)cc1 (centres undefined) [Ibutilide fumarate],105%
15,c1ccc2[nH]c(-c3cscn3)nc2c1 [Tiabendazole],95%
16,CC1CS(=O)(=O)CCN1/N=C/c1ccc([N+](=O)[O-])o1 (centres undefined) [Nifurtimox],74.6%
17,CN1CC2c3ccccc3Oc3ccc(Cl)cc3C2C1 (centres undefined) [Asenapine maleate],92.8%
18,O=C(O)Cc1sc(-c2ccccc2)nc1-c1ccc(Cl)cc1 [Fentiazac],93.3%
19,CC(=O)OCC(=O)[C@@]12N=C(C)O[C@@H]1C[C@H]1[C@@H]3CCC4=CC(=O)C=C[C@]4(C)[C@H]3[C@@H](O)C[C@@]12C [Deflazacort],116%
20,OCc1cc(C(O)CNCCCCCCOCCCCc2ccccc2)ccc1O (centres undefined) [Salmeterol],85.4%
21,CC(=O)Nc1ccc(CC(=O)O)cc1 [Actarit],91.1%
22,Cc1nc2n(c(=O)c1CCN1CCC(c3noc4cc(F)ccc34)CC1)CCCC2 [Risperidone],73.5%
23,CNCCC(Oc1ccc(C(F)(F)F)cc1)c1ccccc1 (centres undefined) [Fluoxetine hydrochloride],83%
24,CCN1CC(CCN2CCOCC2)C(c2ccccc2)(c2ccccc2)C1=O (centres undefined) [Doxapram hydrochloride],79.7%
25,O=C(O)c1cc(-c2ccc(F)cc2F)ccc1O [Diflunisal],102%

row,SMILES,HCT116-GFP viability
1,CCCCNC(=O)NS(=O)(=O)c1ccc(C)cc1 [Tolbutamide],92.9%
2,CC(=O)[C@H]1CC[C@H]2[C@@H]3C[C@H](C)C4=CC(=O)CC[C@]4(C)[C@H]3[C@@H](O)C[C@]12C [Medrysone],105%
3,CCOC(=O)OC(C)OC1=C(C(=O)Nc2ccccn2)N(C)S(=O)(=O)c2ccccc21 (centres undefined) [Ampiroxicam],15.4%
4,O=S(=O)(O)CCS [Mesna],79.1%
5,CCn1cc(C(=O)O)c(=O)c2cnc(N3CCCC3)nc21 [Piromidic acid],101%
6,CC(C)(C)NC[C@H](O)c1ccc(O)c(CO)c1 [Levalbuterol hydrochloride],112%
7,Nc1nc(=O)c2c([nH]1)NC[C@@H](CNc1ccc(C(=O)N[C@@H](CCC(=O)O)C(=O)O)cc1)N2C=O [Folinic acid calcium salt],139%
8,COc1ccc2cc([C@@H](C)C(=O)O)ccc2c1 [(R) -Naproxen sodium salt],91%
9,CC1(C)NC(=O)N(c2ccc([N+](=O)[O-])c(C(F)(F)F)c2)C1=O [Nilutamide],96.9%
10,COC(=O)[C@@H]1[C@H]2C[C@H]3c4[nH]c5ccccc5c4CCN3C[C@@H]2CC[C@@H]1O [Yohimbine hydrochloride],95.1%
11,CCCCC(CC)CNC(=N)NC(=N)NCCCCCCNC(=N)NC(=N)NCC(CC)CCCC (centres undefined) [Alexidine dihydrochloride],0.00913%
12,CCCCOc1cc(C(=O)NCCN(CC)CC)c2ccccc2n1 [Dibucaine],94.5%
13,O=C1CCc2cc(OCCCCc3nnnn3C3CCCCC3)ccc2N1 [Cilostazol],74.1%
14,CCS(=O)(=O)CCn1c([N+](=O)[O-])cnc1C [Tinidazole],108%
15,CCC1=C(C)CN(C(=O)NCCc2ccc(S(=O)(=O)NC(=O)N[C@H]3CC[C@H](C)CC3)cc2)C1=O [Glimepiride],97.4%
16,CN(C)CCOC(=O)COc1ccc(Cl)cc1 [Meclofenoxate hydrochloride],101%
17,Brc1c(NC2=NCCN2)ccc2nccnc12 [Brimonidine L-Tartrate],85.8%
18,CCCc1nc(C(C)(C)O)c(C(=O)O)n1Cc1ccc(-c2ccccc2-c2nnn[nH]2)cc1 [Olmesartan],90.7%
19,"OC(CCN1CCCCC1)(c1ccccc1)C1CCCCC1 (centres undefined) [Trihexyphenidyl-D,L Hydrochloride]",98.5%
20,N=C(N)N/N=C/c1c(Cl)cccc1Cl [Guanabenz acetate],91.3%
21,CN(CCOc1ccc(CC2SC(=O)NC2=O)cc1)c1ccccn1 (centres undefined) [Rosiglitazone Hydrochloride],80.7%
22,CCC(=O)OCC(=O)[C@@]1(OC(=O)CC)[C@H](C)C[C@H]2[C@H]3[C@H]([C@@H](O)C[C@@]21C)[C@@]1(C)C=CC(=O)C=C1C[C@H]3Cl [Alclometasone dipropionate],108%
23,Nc1cc(-c2ccncc2)c[nH]c1=O [Amrinone],98.1%
24,COc1ccc(C[C@@H]2c3cc(OC)c(OC)cc3CC[N@+]2(C)CCC(=O)OCCCCCOC(=O)CC[N@@+]2(C)CCc3cc(OC)c(OC)cc3[C@H]2Cc2ccc(OC)c(OC)c2)cc1OC [Cisatracurium besylate],83.2%
25,CC(N)C12CC3CC(CC(C3)C1)C2 (centres undefined) [Rimantadine Hydrochloride],107%

row,SMILES,HCT116-GFP viability
1,CN(C)[C@@H]1C(O)=C(C(N)=O)C(=O)[C@@]2(O)C(O)=C3C(=O)c4c(O)ccc(Cl)c4[C@@H](O)[C@H]3C[C@@H]12 [Demeclocycline hydrochloride],101%
2,O=C1c2ccccc2S(=O)(=O)N1CCCCN1CCN(c2ncccn2)CC1 [Ipsapirone],98.8%
3,Cn1c([N+](=O)[O-])cnc1COC(N)=O [Ronidazole],94.9%
4,N[C@@H](C(=O)N[C@@H]1C(=O)N2C(C(=O)O)=C(Cl)CS[C@H]12)c1ccccc1 [Cefaclor hydrate],98.4%
5,COc1ccc(C(=O)NCc2ccc(OCCN(C)C)cc2)cc1OC [Itopride],109%
6,CC(Oc1ccccc1)C(=O)N[C@@H]1C(=O)N2[C@@H]1SC(C)(C)[C@@H]2C(=O)O (some centres undefined) [Phenethicillin potassium salt],72.9%
7,CO/N=C(\C(=O)N[C@@H]1C(=O)N2C(C(=O)O)=C(C[N+]3(C)CCCC3)CS[C@H]12)c1csc(N)n1 [Cefepime hydrochloride],75.1%
8,CCOC(=O)[C@H](CCc1ccccc1)N[C@@H](C)C(=O)N1CCC[C@H]1C(=O)O [Enalapril maleate],95.3%
9,CC1=C(CC(=O)O)c2cc(F)ccc2/C1=C\c1ccc([S+](C)[O-])cc1 (centres undefined) [Sulindac],90.2%
10,CC(Oc1c(Cl)cccc1Cl)C1=NCCN1 (centres undefined) [Lofexidine],91.5%
11,CN(C)CCCO[C@@H]1[C@H]2OC(C)(C)O[C@H]2O[C@@H]1[C@H](O)CO [Amiprilose hydrochloride],82.7%
12,C[C@]12CC[C@@H]3c4ccc(O)cc4CC[C@H]3[C@@H]1C[C@@H](O)[C@@H]2O [Estriol],88.1%
13,CC[N+](CC)(CC)CCC(O)(c1ccccc1)C1CCCCC1 (centres undefined) [Tridihexethyl chloride],95.8%
14,CCc1cccc2c3c([nH]c12)C(CC)(CC(=O)O)OCC3 (centres undefined) [Etodolac],123%
15,Cc1noc(NS(=O)(=O)c2ccc(N)cc2)c1C [Sulfisoxazole],93.8%
16,C=CC1=C(C(=O)O)N2C(=O)[C@@H](NC(=O)/C(=N\OCC(=O)O)c3csc(N)n3)[C@H]2SC1 [Cefixime],96.5%
17,OCCOCCN1CCN(C(c2ccccc2)c2ccc(Cl)cc2)CC1 (centres undefined) [Hydroxyzine dihydrochloride],88.9%
18,Cc1ccccc1N1C(=O)c2cc(S(N)(=O)=O)c(Cl)cc2NC1C (centres undefined) [Metolazone],99.7%
19,Cc1cc(-n2c(=O)[nH]c(=O)n(C)c2=O)ccc1Oc1ccc(SC(F)(F)F)cc1 [Toltrazuril],96.7%
20,COc1ccc2[nH]c([S+]([O-])Cc3ncc(C)c(OC)c3C)nc2c1 (centres undefined) [Omeprazole],77.4%
21,CC(=O)Nc1ccc(O)cc1 [Acetaminophen],98.3%
22,COC(=O)C1=C(C)NC(C)=C(C(=O)OCCN(C)Cc2ccccc2)C1c1cccc([N+](=O)[O-])c1 (centres undefined) [Nicardipine hydrochloride],58.8%
23,CN1CCN(c2c(F)cc3c(=O)c(C(=O)O)cn4c3c2SCC4)CC1 [Rufloxacin],93.9%
24,COC(=O)C1=C(C)NC(C)=C(C(=O)OCC(C)C)C1c1ccccc1[N+](=O)[O-] (centres undefined) [Nisoldipine],22.6%
